Laboratory results reported in paper PMC6212790.
This is one part of the list. At the low end of the ranking, values are background and their order means little.

What follows are sequences tested against T1, GST-Rok-C97-191 (UniProt O34857) (assay: protein binding microarray). Details: Rok is a gene silencer of Bacillus subtilis; high values mean tight binding; most listed sequences are background and not binding sites; double strand, one strand shown.
T1 sequence: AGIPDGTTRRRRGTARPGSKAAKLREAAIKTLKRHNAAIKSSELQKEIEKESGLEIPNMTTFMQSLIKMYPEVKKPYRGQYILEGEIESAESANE
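Also: rank score from −0.5 (least bound) to 0.5 (best bound).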

Row | Sequence | binding signal [E-score]
1 | GTTCAGAA | -0.0778
2 | GAGCGGCC | -0.187
3 | AATCGGAA | -0.0181
4 | GTGACGGA | -0.0715
5 | AGCCACGG | -0.267
6 | CGGATAAA | 0.173
7 | TGTCGTAA | 0.182
8 | GCTAACAA | 0.101
9 | ATGTCAGC | -0.0856
10 | CTTGACAA | -0.0112
11 | GACATGGC | -0.0446
12 | ATTTCTAG | 0.366
13 | CTATATTA | 0.355
14 | CCTTTGAA | -0.193
15 | TCTCTTCA | -0.0311
16 | ATGCGTAC | -0.0945
17 | GGCGCAAA | 0.151
18 | AGCGGAAT | -0.0353
19 | CAGTAAAC | 0.103
20 | AACTTGGA | 0.0367
21 | CGGTTCAG | -0.174
22 | GACCACGC | -0.0575
23 | AAGTGAGA | 0.0509
24 | AGGTTCTC | -0.0318
25 | TAGCGGAA | 0.156

Row | Sequence | binding signal [E-score]
26 | AAGAAAAA | 0.141
27 | TCAGCAAA | -0.0845
28 | ACAGAGAT | 0.0146
29 | AATGGGGA | -0.0932
30 | GGACGATA | 0.0108
31 | CATCTAGC | 0.0525
32 | ACCTAAAG | 0.00616
33 | CAAAACGA | -0.0675
34 | ACAACTGG | -0.136
35 | AACAGACC | -0.0573
36 | AGACCATC | -0.00563
37 | ATTAGTAA | 0.303
38 | CACTATTC | 0.0856
39 | ACATTGAA | -0.0181
40 | GTAGCTGA | 0.279
41 | AGACTTCC | -0.175
42 | AAAGATTA | 0.212
43 | AACATTCC | 0.0616
44 | CGAATCGC | -0.274
45 | CTTGTAAA | 0.216
46 | CACCGTAC | -0.0847
47 | GAAAAGAC | 0.0797
48 | GCTAAAAC | 0.0361
49 | TATCCTGA | 0.0508
50 | GCCACGTA | -0.0655

Row | Sequence | binding signal [E-score]
51 | GTCTCCAC | -0.228
52 | GATGTGTA | 0.153
53 | CCCTCACG | -0.00587
54 | AGACATGC | -0.017
55 | AGAAGTCT | 0.0901
56 | CAGATTCC | -0.0974
57 | CAGAACCC | -0.295
58 | TCCGATCA | -0.143
59 | ACACCACT | -0.0509
60 | AAATTTCC | 0.0447
61 | CCAACCGA | -0.148
62 | CTAGTTCA | 0.0257
63 | TAGAAGAA | 0.287
64 | CGGTAGTA | 0.391
65 | AGGCTTGG | -0.112
66 | CAAAAGTG | -0.157
67 | ACTCGCCC | -0.134
68 | CATCCCAG | -0.187
69 | AATAAAGT | 0.0104
70 | CGGGACTA | 0.0767
71 | GTGTTCTA | 0.271
72 | ACCCACAC | -0.0658
73 | AACTAATG | 0.238
74 | GCGATGTA | 0.0921
75 | CTTCCGCC | -0.266

Row | Sequence | binding signal [E-score]
76 | AGGGGACA | -0.285
77 | ACGACTGC | -0.0373
78 | ATAGTGAG | 0.267
79 | ATACACGG | 0.0221
80 | CGCGCTTC | -0.0967
81 | AGGGCGAC | -0.206
82 | ACTCTCCA | -0.0154
83 | GGGACAAA | -0.132
84 | CTCTCACA | -0.2
85 | CGGTGATC | 0.0294
86 | AGACGGAT | -0.131
87 | GCTCCAGA | -0.211
88 | GAGTCCTA | -0.119
89 | ACTTCTCG | -0.0289
90 | CTCAAGGC | -0.207
91 | TAATTACA | 0.396
92 | GTACGGTA | 0.226
93 | GATTATAC | 0.238
94 | ATTCTGAA | 0.183
95 | GCCACAAA | -0.122
96 | GGTTCTAC | 0.031
97 | GATCAACC | -0.104
98 | AACGACAG | 0.0211
99 | GGATGCAC | -0.18
100 | ACTTGCCA | 0.097

Row | Sequence | binding signal [E-score]
101 | GATTGTAA | 0.0411
102 | ATGGCGCG | -0.0665
103 | GCCCGGCC | -0.332
104 | ATCCTTAC | 0.0524
105 | ACATATCC | 0.228
106 | ACCACACA | 0.118
107 | GGACCCCA | -0.285
108 | CATGGTCG | -0.182
109 | ACGCCCGA | -0.0297
110 | GGAGAGCA | -0.205
111 | CTCCTGAA | -0.115
112 | AATTTAAA | 0.115
113 | ACCTAGTC | 0.148
114 | ACGTCCAT | -0.266
115 | CACATTAC | 0.0402
116 | CTGAAGTC | 0.113
117 | ACAGAAGA | 0.105
118 | GATCCCCC | -0.301
119 | CATTTAAG | 0.00273
120 | GCTACATA | 0.315
121 | AACGTCTA | -0.0104
122 | CCAATAAA | 0.109
123 | GTGTTACA | 0.168
124 | GCATCCGA | -0.207
125 | CACTGAGA | 0.0515

Row | Sequence | binding signal [E-score]
126 | CCCTCCAG | -0.266
127 | CGGGTGGA | -0.082
128 | ACAAAGAA | 0.0397
129 | AAATCAGT | 0.0671
130 | CAAATTCA | 0.102
131 | GCAACGCC | -0.226
132 | GGAAAGCA | -0.22
133 | CCCATTGC | -0.29
134 | CGCTGGTA | 0.0789
135 | TCGAGCCA | -0.141
136 | CGAGTAAC | 0.227
137 | AACACGGG | 0.088
138 | CAAGGGGG | -0.304
139 | TCGGTCAA | 0.044
140 | ATTCAGTA | 0.13
141 | CGAGATTC | 0.103
142 | ACTATGAA | 0.174
143 | ATACGGAT | 0.287
144 | CGAACTGC | -0.119
145 | AATGGCTA | -0.031
146 | GACGAAAC | 0.0146
147 | CGAACCTA | 0.0128
148 | AAACTTCC | -0.0662
149 | CCGGCGAA | -0.131
150 | AATAAGGT | 0.106

Row | Sequence | binding signal [E-score]
151 | ACCCCGTC | -0.244
152 | CCCCTAAA | -0.0753
153 | GGTGACGA | -0.132
154 | GCAACATA | 0.217
155 | ACCGGGTC | -0.145
156 | ACAGTGAT | -0.0197
157 | AATGATGC | 0.103
158 | AAGGACGA | -0.197
159 | GGCAGCGA | -0.113
160 | AGCACCCC | -0.142
161 | GACACCTA | -0.0195
162 | AGACTACC | 0.268
163 | AATAGGAC | 0.0906
164 | CAGCACTC | -0.0949
165 | ACTGACCT | 0.149
166 | CTAGCTAG | 0.294
167 | ACTTGATG | -0.0365
168 | AGCGGGGG | -0.349
169 | TGGAACCA | -0.321
170 | ACAAGAAA | -0.0035
171 | AGAAGATG | 0.105
172 | GGTCTGAC | -0.279
